From the supplement of paper PMC4967469

The cell lines below were run with O=C1NC(=O)/C(=C\c2ccc3nccnc3c2)S1 [AS605240] (assay: Viability of human cancer cell lines after 72 h of drug (GDSC screen)). Conditions: top dose inferred.
Procedure: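 Human cancer cell lines in 384-well plates, medium with 10% serum, drug for 72 h over a 256-fold dose range (nine 2-fold or five 4-fold steps up to the top dose). Adherent lines were fixed and stained with the nucleic acid dye Syto60, suspension lines read with resazurin; signal relative to control wells, capped at 0 and 100%. One two-parameter sigmoid per drug and line, fitted in a mixed model over all curves with the slope shared within a line.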

**Q.** Which AUC does the source give for “KE-37 (lymphoblastic leukaemia, suspension, top dose 20 µM)” here?
**A.** The AUC was 0.4.

**Q.** What about the IC50 of the same cell line?
**A.** Its IC50 is 0.71 µM.

**Q.** For CS1 (bone, adherent, top dose 20 µM), which AUC is on record?
**A.** The AUC was 0.866.

**Q.** And the IC50?
**A.** Its IC50 is > 20 µM.

**Q.** Which AUC does the source give for “G-MEL (melanoma, adherent, top dose 20 µM)” here?
**A.** The AUC was 0.118.

**Q.** What about the IC50 of the same cell line?
**A.** The IC50 was < 0.0781 µM.

**Q.** For NEC8 (testis, adherent, top dose 20 µM), which AUC is on record?
**A.** The AUC was 0.96.

**Q.** And the IC50?
**A.** Its IC50 is > 20 µM.

**Q.** “HCC1954 (breast, adherent, top dose 20 µM)” was tested. Which AUC did it give?
**A.** Its AUC is 0.643.

**Q.** And the IC50?
**A.** Its IC50 is 3.33 µM.

**Q.** What does the source list for “CHP-212 (neuroblastoma, adherent, top dose 20 µM)”?
**A.** AUC: 0.041; IC50: < 0.0781 µM

**Q.** Which results are given for “U-118-MG (glioma, adherent, top dose 20 µM)”?
**A.** AUC: 0.985; IC50: > 20 µM

**Q.** For “DBTRG-05MG (glioma, adherent, top dose 20 µM)”, which AUC is on record?
**A.** The AUC was 0.79.

**Q.** What about the IC50 of the same cell line?
**A.** The IC50 was 10.7 µM.

**Q.** With “EKVX (lung adenocarcinoma, adherent, top dose 20 µM)” as the cell line, how does the AUC read?
**A.** The AUC was 0.925.

**Q.** What about the IC50 of the same cell line?
**A.** The IC50 was > 20 µM.

**Q.** “NCI-H522 (lung adenocarcinoma, adherent, top dose 20 µM)” was tested. Which AUC did it give?
**A.** Its AUC is 0.733.

**Q.** And the IC50?
**A.** Its IC50 is 6.61 µM.

**Q.** What does the source list for “SCC-3 (B-cell lymphoma, suspension, top dose 20 µM)”?
**A.** AUC: 0.946; IC50: 19.3 µM

**Q.** Which AUC does the source give for “BT-474 (breast, adherent, top dose 20 µM)” here?
**A.** Its AUC is 0.83.

**Q.** What about the IC50 of the same cell line?
**A.** Its IC50 is 14.6 µM.

**Q.** What does the source list for “PC-3 (prostate, adherent, top dose 20 µM)”?
**A.** AUC: 0.881; IC50: > 20 µM

**Q.** For “NCI-H1092 (small cell lung carcinoma, suspension, top dose 20 µM)”, which AUC is on record?
**A.** Its AUC is 0.951.

**Q.** What about the IC50 of the same cell line?
**A.** The IC50 was > 20 µM.

**Q.** “GMS-10 (glioma, adherent, top dose 20 µM)” was tested. Which AUC did it give?
**A.** The AUC was 0.983.

**Q.** What about the IC50 of the same cell line?
**A.** The IC50 was > 20 µM.

**Q.** Which results are given for “HuP-T4 (pancreas, adherent, top dose 20 µM)”?
**A.** AUC: 0.628; IC50: 2.88 µM

**Q.** “MDST8 (large intestine, adherent, top dose 20 µM)” was tested. Which AUC did it give?
**A.** Its AUC is 0.836.

**Q.** What about the IC50 of the same cell line?
**A.** The IC50 was 13.2 µM.

**Q.** For “ES8 (Ewing sarcoma, adherent, top dose 20 µM)”, which AUC is on record?
**A.** The AUC was 0.894.

**Q.** What about the IC50 of the same cell line?
**A.** Its IC50 is > 20 µM.

**Q.** For “SNU-61 (large intestine, adherent, top dose 20 µM)”, which AUC is on record?
**A.** The AUC was 0.466.

**Q.** What about the IC50 of the same cell line?
**A.** Its IC50 is 0.98 µM.

**Q.** Which results are given for “OVCA433 (ovary, adherent, top dose 20 µM)”?
**A.** AUC: 0.974; IC50: > 20 µM

**Q.** Which results are given for “KARPAS-45 (lymphoblastic leukaemia, suspension, top dose 20 µM)”?
**A.** AUC: 0.621; IC50: 2.53 µM

**Q.** “TGBC1TKB (biliary tract, adherent, top dose 20 µM)” was tested. Which AUC did it give?
**A.** The AUC was 0.983.

**Q.** And the IC50?
**A.** The IC50 was > 20 µM.

**Q.** How did the AUC turn out when “SW756 (cervix, adherent, top dose 20 µM)” was run?
**A.** The AUC was 0.985.

**Q.** And the IC50?
**A.** The IC50 was > 20 µM.

**Q.** “NCI-H1915 (large cell lung carcinoma, adherent, top dose 20 µM)” was tested. Which AUC did it give?
**A.** Its AUC is 0.791.

**Q.** What about the IC50 of the same cell line?
**A.** Its IC50 is 9.19 µM.

**Q.** How did the AUC turn out when SISO (cervix, adherent, top dose 20 µM) was run?
**A.** The AUC was 0.971.

**Q.** And the IC50?
**A.** The IC50 was > 20 µM.

**Q.** Which AUC does the source give for “COLO-679 (melanoma, adherent, top dose 20 µM)” here?
**A.** Its AUC is 0.973.

**Q.** And the IC50?
**A.** Its IC50 is > 20 µM.

**Q.** How did the AUC turn out when “CHL-1 (melanoma, adherent, top dose 20 µM)” was run?
**A.** The AUC was 0.907.

**Q.** And the IC50?
**A.** The IC50 was > 20 µM.

**Q.** How did the AUC turn out when “MDA-MB-453 (breast, adherent, top dose 20 µM)” was run?
**A.** Its AUC is 0.504.

**Q.** What about the IC50 of the same cell line?
**A.** Its IC50 is 1.28 µM.

**Q.** With “SU-DHL-1 (anaplastic large cell lymphoma, suspension, top dose 20 µM)” as the cell line, how does the AUC read?
**A.** The AUC was 0.896.

**Q.** What about the IC50 of the same cell line?
**A.** Its IC50 is 12.5 µM.

**Q.** “FU97 (stomach, adherent, top dose 20 µM)” was tested. Which AUC did it give?
**A.** Its AUC is 0.867.

**Q.** What about the IC50 of the same cell line?
**A.** The IC50 was 18.9 µM.

**Q.** Which AUC does the source give for “KMOE-2 (acute myeloid leukaemia, suspension, top dose 20 µM)” here?
**A.** The AUC was 0.141.

**Q.** And the IC50?
**A.** The IC50 was 0.114 µM.

**Q.** Which AUC does the source give for “ATN-1 (T-cell lymphoblastic leukaemia, suspension, top dose 20 µM)” here?
**A.** The AUC was 0.728.

**Q.** And the IC50?
**A.** The IC50 was 5.28 µM.

**Q.** “CAL-148 (breast, suspension, top dose 20 µM)” was tested. Which AUC did it give?
**A.** The AUC was 0.957.

**Q.** And the IC50?
**A.** The IC50 was > 20 µM.

**Q.** What does the source list for “EJM (lymphoid neoplasm, semi-adherent, top dose 20 µM)”?
**A.** AUC: 0.838; IC50: 10.6 µM

**Q.** With “EW-24 (Ewing sarcoma, semi-adherent, top dose 20 µM)” as the cell line, how does the AUC read?
**A.** Its AUC is 0.98.

**Q.** And the IC50?
**A.** Its IC50 is > 20 µM.

**Q.** What does the source list for “5637 (bladder, adherent, top dose 20 µM)”?
**A.** AUC: 0.732; IC50: 5.29 µM

**Q.** “MDA-MB-468 (breast, adherent, top dose 20 µM)” was tested. Which AUC did it give?
**A.** The AUC was 0.875.

**Q.** And the IC50?
**A.** The IC50 was 18.4 µM.

**Q.** Which AUC does the source give for “NCI-H1623 (lung adenocarcinoma, adherent, top dose 20 µM)” here?
**A.** The AUC was 0.928.

**Q.** What about the IC50 of the same cell line?
**A.** Its IC50 is > 20 µM.

**Q.** With “IPC-298 (melanoma, adherent, top dose 20 µM)” as the cell line, how does the AUC read?
**A.** Its AUC is 0.731.

**Q.** What about the IC50 of the same cell line?
**A.** Its IC50 is 5.59 µM.

**Q.** Which results are given for “TOV-21G (ovary, adherent, top dose 20 µM)”?
**A.** AUC: 0.946; IC50: > 20 µM

**Q.** Which AUC does the source give for “TMK-1 (stomach, adherent, top dose 20 µM)” here?
**A.** Its AUC is 0.978.

**Q.** What about the IC50 of the same cell line?
**A.** Its IC50 is > 20 µM.

**Q.** For HeLa (cervix, adherent, top dose 20 µM), which AUC is on record?
**A.** Its AUC is 0.935.

**Q.** And the IC50?
**A.** Its IC50 is > 20 µM.

**Q.** “NCI-H647 (non-small cell lung carcinoma, adherent, top dose 20 µM)” was tested. Which AUC did it give?
**A.** The AUC was 0.848.

**Q.** What about the IC50 of the same cell line?
**A.** Its IC50 is 15.9 µM.

**Q.** Which AUC does the source give for “A101D (melanoma, adherent, top dose 20 µM)” here?
**A.** The AUC was 0.928.

**Q.** And the IC50?
**A.** The IC50 was > 20 µM.

IC50 is the fitted dose that halves viability relative to control wells, and lower means more sensitive; a fit beyond the top or the lowest dose is shown as a bound at that dose. AUC is the area under the same curve over the 256-fold range up to the top dose, as a fraction: 1 means no effect, lower means more sensitive. An inferred top dose is not printed in the source and was worked back from the curve model.
